Test results as given in the antibiotic and cytotoxicity screens of Wong et al. (2023).
Some of the results follow.

Columns and labels:
HSkMC = human skeletal muscle cells; assay: cytotoxicity call (relative viability < 0.9); conditions: 10 µM
HepG2 = assay: cytotoxicity call (relative viability < 0.9); conditions: 10 µM
S. aureus RN4220 = assay: growth inhibition call (relative growth <= 0.2); conditions: 50 µM

Row | SMILES | cytotoxicity call (HSkMC) | cytotoxicity call (HepG2) | growth inhibition call (S. aureus RN4220)
1 | C[C@@H]1CCCCO[C@H](CN(C)S(=O)(=O)c2ccccc2)[C@H](C)CN([C@@H](C)CO)C(=O)c2cc(NC(=O)Nc3ccc(F)cc3)ccc2O1 | inactive | active | inactive
2 | C[C@@H]1CCCCO[C@H](CN(C)C(=O)C2CCCCC2)[C@@H](C)CN([C@H](C)CO)C(=O)c2cc(NS(=O)(=O)c3ccc(Cl)cc3)ccc2O1 | inactive | inactive | inactive
3 | C[C@H](CO)N1C[C@H](C)[C@H](CN(C)S(=O)(=O)c2ccc(F)cc2)Oc2ncc(C#Cc3ccccc3)cc2C1=O | inactive | inactive | inactive
4 | C[C@H](CO)N1C[C@H](C)[C@H](CN(C)S(=O)(=O)c2cccs2)Oc2ncc(C#CCN(C)C)cc2C1=O | inactive | inactive | inactive
5 | COc1ccc(NC(=O)N(C)C[C@@H]2OCCCC[C@H](C)Oc3ccc(NC(=O)Nc4ccc5c(c4)OCO5)cc3C(=O)N([C@H](C)CO)C[C@@H]2C)cc1 | inactive | inactive | inactive
6 | CCn1c2ccc(Cl)cc2c2cc(Cl)ccc21 | inactive | inactive | inactive
7 | COc1ccccc1CNC(=O)C[C@H]1CC[C@@H]2[C@H](COC[C@@H](O)CN2C(=O)Nc2ccc(Cl)cc2)O1 | inactive | inactive | active
8 | CC(Cc1cccc(C(F)(F)F)c1)NCCOC(=O)c1ccccc1.Cl (stereo not drawn) | inactive | inactive | inactive
9 | CCCN(C)C[C@@H]1OCCCC[C@@H](C)Oc2ccc(NC(=O)CCC(F)(F)F)cc2C(=O)N([C@H](C)CO)C[C@@H]1C | inactive | inactive | inactive
10 | O=C(C[C@H]1CC[C@@H]2[C@H](COC[C@@H](O)CN2S(=O)(=O)c2ccccc2F)O1)NCc1ccccc1F | inactive | inactive | inactive
11 | COc1ccc([C@@H]([C@H](Cc2ccccc2)OC(C)=O)N2C[C@@H](OC(C)=O)[C@@H]3[C@H]([C@@H]2Cc2ccccc2)N(C)O[C@H]3c2ccccc2)cc1 | inactive | inactive | inactive
12 | COCC(=O)Nc1ccc2c(c1)OC[C@@H](C)N(C(=O)Cc1ccccn1)C[C@@H](C)[C@@H](OC)CN(C)C2=O | inactive | inactive | inactive
13 | C[C@H](CO)N1C[C@H](C)[C@@H](CN(C)S(=O)(=O)c2ccc(F)cc2)Oc2ccc(NC(=O)Cn3cnnn3)cc2CC1=O | inactive | inactive | inactive
14 | COCC#Cc1ccc2c(c1)O[C@@H](CN(C)Cc1ccccc1F)[C@@H](C)CN([C@@H](C)CO)S2(=O)=O | inactive | inactive | inactive
15 | C[C@@H]1CCCCO[C@@H](CN(C)C(=O)NC2CCCCC2)[C@H](C)CN([C@H](C)CO)C(=O)c2cc(NS(=O)(=O)c3cccs3)ccc2O1 | inactive | inactive | inactive
16 | COc1ccc(C2=NS(=O)(=O)N(C)C(C(=O)N3CCC(C(N)=O)CC3)=C2)cc1 | inactive | inactive | inactive
17 | C[C@H]1CN([C@@H](C)CO)C(=O)Cc2cc(NS(=O)(=O)c3cn(C)cn3)ccc2O[C@@H]1CN(C)C | inactive | inactive | inactive
18 | CCCNC(=O)N1C[C@H](O)COC[C@@H]2O[C@@H](CC(=O)NCCCN3CCOCC3)CC[C@H]21 | inactive | inactive | inactive
19 | CC(C=CC=C(C)C=CC1=C(C)C(=O)C(O)CC1(C)C)=CC=CC=C(C)C=CC=C(C)C=CC1=C(C)C(=O)C(O)CC1(C)C (stereo not drawn) | inactive | inactive | inactive
20 | Cc1ccc(S(=O)(=O)N(C)C[C@H]2Oc3c(NS(=O)(=O)c4cccs4)cccc3C(=O)N([C@@H](C)CO)C[C@@H]2C)cc1 | inactive | inactive | inactive
21 | C[C@H](O)C#Cc1ccc2c(c1)O[C@H](CN(C)C(=O)Nc1ccccc1)[C@H](C)CN([C@H](C)CO)S2(=O)=O | inactive | inactive | inactive
22 | C=CCOC(=O)[C@H]1[C@@H]2C(=O)O[C@@H](c3ccccc3)[C@@H](c3ccccc3)N2[C@@H](c2ccc(OCCOC(=O)[C@@H]3C[C@@H]4C(=O)NCC(=O)N4[C@@H]3c3cccc(OCCO)c3)cc2)[C@]12C(=O)Nc1ccc(I)cc12 | inactive | inactive | inactive
23 | C[C@@H]1CN([C@H](C)CO)C(=O)c2cccc(NS(=O)(=O)c3ccccc3)c2O[C@H]1CN(C)Cc1ccc(Cl)c(Cl)c1 | inactive | inactive | inactive
24 | C[C@@H]1CN([C@@H](C)CO)C(=O)c2cccc(NC(=O)Nc3ccc(C(F)(F)F)cc3)c2O[C@H]1CN(C)C(=O)Nc1ccccc1 | inactive | inactive | inactive
25 | COc1ccccc1-c1ccc2c(c1)O[C@@H](CN(C)CC1CCOCC1)[C@@H](C)CN([C@@H](C)CO)S2(=O)=O | inactive | inactive | inactive
26 | C[C@H]1CCCCO[C@H](CN(C)C(=O)Cc2ccccc2)[C@@H](C)CN([C@@H](C)CO)C(=O)c2cc(NC(=O)CCC(F)(F)F)ccc2O1 | inactive | inactive | inactive
